The shares of active, inactive and inconclusive entries below differ from those in the screen. Where a call stands in place of a potency, no number is given. For some of these results: A potency beside an inconclusive call is a rough fit, not a confirmed value. Activity calls are given as the source filed them. Unless noted, the call rests on the fitted dose curve; in most records, active means well fitted curve in the direction sought with a large enough effect in the repeat runs; inconclusive means weak or mixed curves; inactive means no such curve, though single readings can be large; an effect the other way counts as inactive or inconclusive.
Legend:
[1] = qHTS assay to identify small molecule antagonists of the peroxisome proliferator-activated receptor gamma (PPARg) signaling pathway - cell viability counter screen (AID 743194); details: PPARg-bla HEK293H viability, CellTiter-Glo luminescence, 17 h, co-treated with 50 nM rosiglitazone; activity change, negative = cytotoxicity: at 62.6 µM (top of the series) unless noted; further: nearly all actives have a fitted effect of over 55% in size; further: potency means the concentration at half of the fitted maximal effect
In short: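 Viability was measured as CellTiter-Glo luminescence in GeneBLAzer PPARg UAS-bla HEK293H cells. These cells had been exposed 17 h at 37 C to compounds together with rosiglitazone at 50 nM final, with the beta-lactamase readout taken in the same wells.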

[2] = qHTS assay for small molecule agonists of the antioxidant response element (ARE) signaling pathway (AID 743202; active means well fitted activation curve with a large enough effect in the signal ratio in the repeat runs, not every such curve was filed as active; inconclusive means weak or mixed curves, or effect the other way; inactive means no such curve, though single readings can be large or run the other way; the % refers to the signal ratio; further: potency means the concentration at half of the fitted maximal effect); details: HepG2 ARE-bla reporter, beta-lactamase FRET, 16 h; activation: at 73.3 µM (top of the series) unless noted
In short: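 After 16 hours of compound treatment at 37 C, HepG2 cells with a stably integrated ARE-driven beta-lactamase reporter were loaded 2 hours at room temperature with LiveBLAzer B/G FRET substrate and fluorescence intensity measured.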

[3] = qHTS assay for small molecule agonists of the antioxidant response element (ARE) signaling pathway - cell viability counter screen (AID 743203; calls by dose curve; further: potency means the concentration at half of the fitted maximal effect; nearly all actives have a fitted effect of over 55% in size); details: ARE-bla HepG2 viability, CellTiter-Glo luminescence, 16 h; viability change, negative = cytotoxic: at 73.3 µM (top of the series)
In short: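 Viability counter screen: CellTiter-Glo luminescence, read after 30 min at room temperature, in ARE-bla HepG2 wells. Compound exposure lasted 16 h at 37C/5% CO2, following a 5 h pre-incubation of the cells after plating.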

[4] = qHTS assay for small molecule activators of the heat shock response signaling pathway (AID 743210; active means well fitted activation curve with a large enough effect in the signal ratio in the repeat runs, with a control signal flat, not every such curve was filed as active; inconclusive means weak or mixed curves; the % refers to the signal ratio); details: HeLa HSE-bla reporter, beta-lactamase ratio, 5 h; activation: at 62.6 µM (top of the series) unless noted
In short: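 Compound exposure lasted 5 h at 37 C in HeLa cells carrying a heat-shock-element-driven beta-lactamase reporter. Read-out: fluorescence intensity after 2.5 h room-temperature loading with LiveBLAzer B/G FRET substrate.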

[5] = qHTS assay for small molecule activators of the heat shock response signaling pathway - cell viability counter screen (AID 743209); details: HSE-bla HeLa viability, CellTiter-Glo luminescence, 5 h; activity change, negative = cytotoxicity: at 62.6 µM (top of the series) unless noted; further: potency means the concentration at half of the fitted maximal effect; nearly all actives have a fitted effect of over 50% in size
In short: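 Cytotoxicity counter screen run in the same wells as the heat-shock bla reporter assay: HeLa HSE-bla cells, 5 h compound exposure at 37 C, viability read by CellTiter-Glo luminescence.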

[6] = qHTS assay to identify small molecule agonists of the peroxisome proliferator-activated receptor delta (PPARd) signaling pathway - cell viability counter screen (AID 743211); details: PPARd-bla HEK293H viability, CellTiter-Glo luminescence, 17 h; activity change, negative = cytotoxicity: at 62.6 µM (top of the series); further: nearly all actives have a fitted effect of over 55% in size
In short: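 Viability was measured as CellTiter-Glo luminescence (30 min, room temperature) in the same wells as the beta-lactamase readout. GeneBLAzer PPARd UAS-bla HEK293H cells received compound after 5 h plating and were incubated 17 h at 37 C.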
Tags describe the fitted curve by direction and shape.

In the case of O=C(O)c1cccc(C[C@@H]2COc3ccc(OCc4nc5cc(F)ccc5s4)cc3[C@@H]2O)c1, the Potency [1] was inconclusive: 0.055 µM [rising, full curve, poor fit], the activation [2] was inconclusive: 38.2% and the Potency [3] was inconclusive: 61.2 µM [cytotoxic, partial curve, poor fit]. For the same molecule, the Potency [4] was “inactive”.
For C=CC(C)(O)CCC=C(C)C (centres undefined), the Potency [1] was “inactive”.
In the case of CCCCCCCCCCC=CC1CC(=O)OC1=O (centres undefined), the Potency [1] was inconclusive: 6.2 µM [rising, partial curve, poor fit], the Potency [2] was inconclusive: 54.5 µM [rising, partial curve] and the activation [2] was inconclusive: 33.1% [at 94.8 µM].
For Cc1cccc(S(=O)(=O)O)c1C, the Potency [1] was “inactive” and the Potency [2] was “inactive”.
In the case of COC(=O)CCc1ccc(OCC(O)CNC(C)C)cc1 (centres undefined), the Potency [1] was “inactive” and the Potency [2] was “inactive”.
In the case of C=CCOCC(CO)(COCC=C)COCC=C, the Potency [1] was inconclusive: 0.124 µM [cytotoxic, full curve, poor fit].
For CCc1ccc(Br)cc1, the Potency [2] was “inactive”.
For O=C(O)CCC(=O)c1ccc(-c2ccccc2)cc1, the Potency [1] was “inactive”, the Potency [5] was inconclusive: 0.335 µM [cytotoxic, full curve] and the Potency [6] was “inactive”.
With O=S(=O)(O)c1ccc(Cl)cc1 the Potency [2] was “inactive”.
In the case of OCC(CO)n1cnc(-c2ccc(F)cc2)c1-c1ccnc(Oc2ccccc2)n1, the activation [2] was inconclusive: 25.2%.

— PubChem BioAssay (Tox21)
